# Data: the supplement of paper PMC8728848
# The list shows a part of the results.
# B1: LecRKVI.2 (protein)
# chain: RTTTNFAFRGFNGNQSKIRIEGAAMIKPDGLLRLTDRKSNVTGTAFYHKPVRLLNRNSTNVTIRSFSTSFVFVIIPSSSSNKGFGFTFTLSPTPYRLNAGSAQYLGVFNKENNGDPRNHVFAVEFDTVQGSRDDNTDRIGNDIGLNYNSRTSDLQEPVVYYNNDDHNKKEDFQLESGNPIQALLEYDGATQMLNVTVYPARLGFKPTKPLISQHVPKLLEIVQEEMYVGFTASTGKGQSSAHYVMGWSFSSGGERPIADVLILSELPPPPPNKAKKEGLNS
# Experiments:
# Experiment in all cases: glycan array binding signal (z-score within array); higher = stronger binding
# Conditions in all cases: glycan notation: IUPAC condensed, linker removed
# Kdn(a2-3)Gal(b1-4)Glc = molecular target: Kdn(a2-3)Gal(b1-4)Glc
# Method in brief: (§1)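 The Consortium for Functional Glycomics database supplied 3228 glycan arrays, of which those lacking an available protein sequence were dropped. The binding signal, a within-array Z-score, was averaged across arrays of the same protein sequence and across linkers. Negative scores can be read as non-binding.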
# Kdn(a2-3)Gal(b1-4)GlcNAc = molecular target: Kdn(a2-3)Gal(b1-4)GlcNAc
# Method in brief: as §1
# [1] = molecular target: Kdn(a2-3)Gal(b1-4)[Fuc(a1-3)]GlcNAc
# Method in brief: as §1
# Kdn(a2-6)Gal(b1-4)GlcNAc = molecular target: Kdn(a2-6)Gal(b1-4)GlcNAc
# Method in brief: as §1
# [2] = molecular target: Man(a1-2)Man(a1-2)Man(a1-3)Man
# Method in brief: as §1
# [3] = molecular target: Man(a1-2)Man(a1-2)Man(a1-6)[Man(a1-3)]Man
# Method in brief: as §1
# Man(a1-2)Man(a1-3)Man = molecular target: Man(a1-2)Man(a1-3)Man
# Method in brief: as §1
# [4] = molecular target: Man(a1-2)Man(a1-3)[Man(a1-2)Man(a1-6)]Man
# Method in brief: as §1
# [5] = molecular target: Man(a1-2)Man(a1-3)[Man(a1-2)Man(a1-6)]Man(a1-6)[Man(a1-2)Man(a1-2)Man(a1-3)]Man
# Method in brief: as §1
# [6] = molecular target: Man(a1-2)Man(a1-3)[Man(a1-2)Man(a1-6)]Man(a1-6)[Man(a1-2)Man(a1-2)Man(a1-3)]Man(b1-4)GlcNAc(b1-4)GlcNAc
# Method in brief: as §1
# [7] = molecular target: Man(a1-2)Man(a1-3)[Man(a1-6)]Man(a1-6)[Man(a1-2)Man(a1-3)]Man(b1-4)GlcNAc(b1-4)GlcNAc
# Method in brief: as §1
# [8] = molecular target: Man(a1-2)Man(a1-6)[Man(a1-3)]Man(a1-6)[Man(a1-2)Man(a1-2)Man(a1-3)]Man
# Method in brief: as §1
# [9] = molecular target: Man(a1-2)Man(a1-6)[Man(a1-3)]Man(a1-6)[Man(a1-2)Man(a1-2)Man(a1-3)]Man(b1-4)GlcNAc(b1-4)GlcNAc
# Method in brief: as §1
# Man(a1-3)[Man(a1-6)]Man = molecular target: Man(a1-3)[Man(a1-6)]Man
# Method in brief: as §1
# [10] = molecular target: Man(a1-3)[Man(a1-6)]Man(a1-6)[Man(a1-2)Man(a1-3)]Man(b1-4)GlcNAc(b1-4)GlcNAc
# Method in brief: as §1
# [11] = molecular target: Man(a1-3)[Man(a1-6)]Man(a1-6)[Man(a1-3)]Man
# Method in brief: as §1
# [12] = molecular target: Man(a1-3)[Man(a1-6)]Man(a1-6)[Man(a1-3)]Man(b1-4)GlcNAc(b1-4)GlcNAc
# Method in brief: as §1
# [13] = molecular target: Man(a1-3)[Man(a1-6)]Man(b1-4)GlcNAc(b1-4)GlcNAc
# Method in brief: as §1
# [14] = molecular target: Man(a1-3)[Man(a1-6)]Man(b1-4)GlcNAc(b1-4)[Fuc(a1-6)]GlcNAc
# Method in brief: as §1
# Man(a1-6)Man = molecular target: Man(a1-6)Man
# Method in brief: as §1
# Man(b1-4)GlcNAc = molecular target: Man(b1-4)GlcNAc
# Method in brief: as §1
# MurNAc(b1-4)GlcNAc = molecular target: MurNAc(b1-4)GlcNAc
# Method in brief: as §1
# Neu5Ac(a2-3)Gal = molecular target: Neu5Ac(a2-3)Gal
# Method in brief: as §1
# [15] = molecular target: Neu5Ac(a2-3)Gal(b1-3)GalNAc
# Method in brief: as §1
# [16] = molecular target: Neu5Ac(a2-3)Gal(b1-3)GalNAc(b1-3)Gal(a1-4)Gal(b1-4)Glc
# Method in brief: as §1
# [17] = molecular target: Neu5Ac(a2-3)Gal(b1-3)GalNAc(b1-4)Gal(b1-4)Glc
# Method in brief: as §1
# [18] = molecular target: Neu5Ac(a2-3)Gal(b1-3)GalNAc(b1-4)[Neu5Ac(a2-3)]Gal(b1-4)Glc
# Method in brief: as §1
# [19] = molecular target: Neu5Ac(a2-3)Gal(b1-3)GalNAc(b1-4)[Neu5Ac(a2-8)Neu5Ac(a2-3)]Gal(b1-4)Glc
# Method in brief: as §1
# [20] = molecular target: Neu5Ac(a2-3)Gal(b1-3)GalNAc6S
# Method in brief: as §1
# [21] = molecular target: Neu5Ac(a2-3)Gal(b1-3)GlcNAc
# Method in brief: as §1
# [22] = molecular target: Neu5Ac(a2-3)Gal(b1-3)GlcNAc(b1-2)Man
# Method in brief: as §1
# [23] = molecular target: Neu5Ac(a2-3)Gal(b1-3)GlcNAc(b1-2)Man(a1-3)[GlcNAc(b1-4)][Neu5Ac(a2-3)Gal(b1-3)GlcNAc(b1-2)Man(a1-6)]Man(b1-4)GlcNAc(b1-4)GlcNAc
# Method in brief: as §1
# [24] = molecular target: Neu5Ac(a2-3)Gal(b1-3)GlcNAc(b1-2)Man(a1-3)[Neu5Ac(a2-3)Gal(b1-3)GlcNAc(b1-2)Man(a1-6)]Man(b1-4)GlcNAc(b1-4)GlcNAc
# Method in brief: as §1
# [25] = molecular target: Neu5Ac(a2-3)Gal(b1-3)GlcNAc(b1-2)[Neu5Ac(a2-3)Gal(b1-3)GlcNAc(b1-4)]Man(a1-6)[Neu5Ac(a2-3)Gal(b1-3)GlcNAc(b1-2)Man(a1-3)]Man(b1-4)GlcNAc(b1-4)GlcNAc
# Method in brief: as §1
# [26] = molecular target: Neu5Ac(a2-3)Gal(b1-3)GlcNAc(b1-3)Gal(b1-3)GlcNAc
# Method in brief: as §1
# [27] = molecular target: Neu5Ac(a2-3)Gal(b1-3)GlcNAc(b1-3)Gal(b1-4)GlcNAc
# Method in brief: as §1
# [28] = molecular target: Neu5Ac(a2-3)Gal(b1-3)GlcNAc(b1-3)GalNAc
# Method in brief: as §1
# [29] = molecular target: Neu5Ac(a2-3)Gal(b1-3)GlcNAc(b1-6)GalNAc
# Method in brief: as §1
binder,measurement,setting,value
B1,glycan array binding signal (z-score),Kdn(a2-3)Gal(b1-4)Glc,-0.034
same,glycan array binding signal (z-score),Kdn(a2-3)Gal(b1-4)GlcNAc,-0.49
same,glycan array binding signal (z-score),[1],-0.352
same,glycan array binding signal (z-score),Kdn(a2-6)Gal(b1-4)GlcNAc,-0.147
same,glycan array binding signal (z-score),[2],-0.421
same,glycan array binding signal (z-score),[3],-0.309
same,glycan array binding signal (z-score),Man(a1-2)Man(a1-3)Man,-0.401
same,glycan array binding signal (z-score),[4],-0.363
same,glycan array binding signal (z-score),[5],-0.426
same,glycan array binding signal (z-score),[6],-0.34
same,glycan array binding signal (z-score),[7],-0.161
same,glycan array binding signal (z-score),[8],-0.38
same,glycan array binding signal (z-score),[9],-0.299
same,glycan array binding signal (z-score),Man(a1-3)[Man(a1-6)]Man,-0.318
same,glycan array binding signal (z-score),[10],0.389
same,glycan array binding signal (z-score),[11],-0.373
same,glycan array binding signal (z-score),[12],0.086
same,glycan array binding signal (z-score),[13],-0.376
same,glycan array binding signal (z-score),[14],-0.127
same,glycan array binding signal (z-score),Man(a1-6)Man,-0.393
same,glycan array binding signal (z-score),Man(b1-4)GlcNAc,-0.283
same,glycan array binding signal (z-score),MurNAc(b1-4)GlcNAc,-0.279
same,glycan array binding signal (z-score),Neu5Ac(a2-3)Gal,-0.315
same,glycan array binding signal (z-score),[15],-0.423
same,glycan array binding signal (z-score),[16],-0.388
same,glycan array binding signal (z-score),[17],-0.298
same,glycan array binding signal (z-score),[18],-0.292
same,glycan array binding signal (z-score),[19],-0.392
same,glycan array binding signal (z-score),[20],-0.373
same,glycan array binding signal (z-score),[21],-0.338
same,glycan array binding signal (z-score),[22],-0.335
same,glycan array binding signal (z-score),[23],-0.407
same,glycan array binding signal (z-score),[24],-0.077
same,glycan array binding signal (z-score),[25],2.24
same,glycan array binding signal (z-score),[26],-0.418
same,glycan array binding signal (z-score),[27],-0.343
same,glycan array binding signal (z-score),[28],-0.45
same,glycan array binding signal (z-score),[29],-0.315
